The other results are listed elsewhere or left out.
Columns and labels:
Assay in all cases: glycan array binding signal (z-score within array); higher = stronger binding
Details in all cases: glycan notation: IUPAC condensed, linker removed
[1] = biological target: Neu5Ac(a2-6)Gal(b1-4)GlcNAc(b1-2)Man(a1-3)[Man(a1-6)]Man(b1-4)GlcNAc(b1-4)GlcNAc
Method in brief: (§1)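 Negative Z-scores can be read as non-binding. The Z-score is calculated within each array and then averaged across arrays of one protein sequence at different concentrations or buffers and across linkers. Arrays, 3228 in all, were curated from the Consortium for Functional Glycomics database and kept only where the protein sequence was available.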

[2] = biological target: Neu5Ac(a2-6)Gal(b1-4)GlcNAc(b1-2)Man(a1-3)[Neu5Ac(a2-3)Gal(b1-4)GlcNAc(b1-2)Man(a1-6)]Man(b1-4)GlcNAc(b1-4)GlcNAc
Method in brief: as §1

[3] = biological target: Neu5Ac(a2-6)Gal(b1-4)GlcNAc(b1-2)Man(a1-3)[Neu5Ac(a2-6)Gal(b1-4)GlcNAc(b1-2)Man(a1-6)]Man(b1-4)GlcNAc(b1-4)GlcNAc
Method in brief: as §1

[4] = biological target: Neu5Ac(a2-6)Gal(b1-4)GlcNAc(b1-2)Man(a1-3)[Neu5Ac(a2-6)Gal(b1-4)GlcNAc(b1-2)Man(a1-6)]Man(b1-4)GlcNAc(b1-4)[Fuc(a1-6)]GlcNAc
Method in brief: as §1

[5] = biological target: Neu5Ac(a2-6)Gal(b1-4)GlcNAc(b1-2)Man(a1-6)Man(b1-4)GlcNAc(b1-4)GlcNAc
Method in brief: as §1

[6] = biological target: Neu5Ac(a2-6)Gal(b1-4)GlcNAc(b1-2)Man(a1-6)[Gal(b1-4)GlcNAc(b1-2)Man(a1-3)]Man(b1-4)GlcNAc(b1-4)GlcNAc
Method in brief: as §1

[7] = biological target: Neu5Ac(a2-6)Gal(b1-4)GlcNAc(b1-2)Man(a1-6)[GlcNAc(b1-2)Man(a1-3)]Man(b1-4)GlcNAc(b1-4)GlcNAc
Method in brief: as §1

[8] = biological target: Neu5Ac(a2-6)Gal(b1-4)GlcNAc(b1-2)Man(a1-6)[Man(a1-3)]Man(b1-4)GlcNAc(b1-4)GlcNAc
Method in brief: as §1

[9] = biological target: Neu5Ac(a2-6)Gal(b1-4)GlcNAc(b1-2)[Neu5Ac(a2-6)Gal(b1-4)GlcNAc(b1-4)]Man(a1-3)[GlcNAc(b1-4)][Neu5Ac(a2-6)Gal(b1-4)GlcNAc(b1-2)[Neu5Ac(a2-6)Gal(b1-4)GlcNAc(b1-6)]Man(a1-6)]Man(b1-4)GlcNAc(b1-4)GlcNAc
Method in brief: as §1

[10] = biological target: Neu5Ac(a2-6)Gal(b1-4)GlcNAc(b1-2)[Neu5Ac(a2-6)Gal(b1-4)GlcNAc(b1-4)]Man(a1-3)[GlcNAc(b1-4)][Neu5Ac(a2-6)Gal(b1-4)GlcNAc(b1-4)Man(a1-6)]Man(b1-4)GlcNAc(b1-4)GlcNAc
Method in brief: as §1

[11] = biological target: Neu5Ac(a2-6)Gal(b1-4)GlcNAc(b1-2)[Neu5Ac(a2-6)Gal(b1-4)GlcNAc(b1-6)]Man(a1-6)[Neu5Ac(a2-6)Gal(b1-4)GlcNAc(b1-2)Man(a1-3)][GlcNAc(b1-4)]Man(b1-4)GlcNAc(b1-4)GlcNAc
Method in brief: as §1

[12] = biological target: Neu5Ac(a2-6)Gal(b1-4)GlcNAc(b1-3)Gal(b1-3)GlcNAc
Method in brief: as §1

[13] = biological target: Neu5Ac(a2-6)Gal(b1-4)GlcNAc(b1-3)Gal(b1-4)GlcNAc
Method in brief: as §1

[14] = biological target: Neu5Ac(a2-6)Gal(b1-4)GlcNAc(b1-3)Gal(b1-4)GlcNAc(b1-2)Man(a1-3)[Neu5Ac(a2-6)Gal(b1-4)GlcNAc(b1-3)Gal(b1-4)GlcNAc(b1-2)Man(a1-6)]GalNAc
Method in brief: as §1

[15] = biological target: Neu5Ac(a2-6)Gal(b1-4)GlcNAc(b1-3)Gal(b1-4)GlcNAc(b1-3)Gal(b1-4)GlcNAc
Method in brief: as §1

[16] = biological target: Neu5Ac(a2-6)Gal(b1-4)GlcNAc(b1-3)Gal(b1-4)GlcNAc(b1-3)Gal(b1-4)GlcNAc(b1-2)Man(a1-3)[Neu5Ac(a2-6)Gal(b1-4)GlcNAc(b1-3)Gal(b1-4)GlcNAc(b1-3)Gal(b1-4)GlcNAc(b1-2)Man(a1-6)]GalNAc
Method in brief: as §1

[17] = biological target: Neu5Ac(a2-6)Gal(b1-4)GlcNAc(b1-3)Gal(b1-4)GlcNAc(b1-3)GalNAc
Method in brief: as §1

[18] = biological target: Neu5Ac(a2-6)Gal(b1-4)GlcNAc(b1-3)Gal(b1-4)GlcNAc(b1-3)[Neu5Ac(a2-6)Gal(b1-4)GlcNAc(b1-3)Gal(b1-4)GlcNAc(b1-6)]GalNAc
Method in brief: as §1

[19] = biological target: Neu5Ac(a2-6)Gal(b1-4)GlcNAc(b1-3)Gal(b1-4)GlcNAc(b1-6)[Gal(b1-3)]GalNAc
Method in brief: as §1

[20] = biological target: Neu5Ac(a2-6)Gal(b1-4)GlcNAc(b1-3)Gal(b1-4)[Fuc(a1-3)]GlcNAc(b1-3)Gal(b1-4)[Fuc(a1-3)]GlcNAc
Method in brief: as §1

[21] = biological target: Neu5Ac(a2-6)Gal(b1-4)GlcNAc(b1-3)GalNAc
Method in brief: as §1

[22] = biological target: Neu5Ac(a2-6)Gal(b1-4)GlcNAc(b1-3)[Neu5Ac(a2-6)Gal(b1-4)GlcNAc(b1-6)]GalNAc
Method in brief: as §1

[23] = biological target: Neu5Ac(a2-6)Gal(b1-4)GlcNAc(b1-6)GalNAc
Method in brief: as §1

[24] = biological target: Neu5Ac(a2-6)Gal(b1-4)GlcNAc(b1-6)[Gal(b1-3)GlcNAc(b1-3)]Gal(b1-4)Glc
Method in brief: as §1

[25] = biological target: Neu5Ac(a2-6)Gal(b1-4)GlcNAc(b1-6)[Gal(b1-3)]GalNAc
Method in brief: as §1

[26] = biological target: Neu5Ac(a2-6)Gal(b1-4)GlcNAc6S
Method in brief: as §1

Neu5Ac(a2-6)GalNAc = biological target: Neu5Ac(a2-6)GalNAc
Method in brief: as §1

[27] = biological target: Neu5Ac(a2-6)GalNAc(b1-4)GlcNAc
Method in brief: as §1

[28] = biological target: Neu5Ac(a2-6)GalNAc(b1-4)GlcNAc6S
Method in brief: as §1

[29] = biological target: Neu5Ac(a2-6)GlcNAc(b1-4)GlcNAc
Method in brief: as §1

[30] = biological target: Neu5Ac(a2-6)GlcNAc(b1-4)GlcNAc(b1-4)GlcNAc
Method in brief: as §1

B1: B160 (Bifidobacterium sp) (protein)
chain: MVSHNKRIVAALAAVAAMGIGLAGCGGSDTAGDTKSGSDGGVVNITYMHRLPDSEGMTLVNDIVAKWNKEHPNIQVKATKFDGNAADMIKKLETDVKAGNAPDLAQVGYAEVPEVFTKGLLQDVTDEAAKYKDDFASGPFALMQVDGKTYGLPQDTGPLTYFYNAAEFEKLGITVPKTADELIETAKKTAAQGKYIMTFTPDEAMMMMSGQAGASGPWYKVDGNSWVVNTQTKGSKAVADVYQQLIDNKAALTNPRWDASFDNSIQSGQLIGTVAAAWEAPLFIDSAGGTGAGEWKVTQLGDWFGNGTKTGANGGSGVAVLKGSKHPAEAMEFLDWFNTQVDDLVSQGLVVAATTADAKTPQKWSDYFSGQDVMAEFKTANDNMGDFTYMPGFSAVGAAMKQTAAKAADGSAKVSDVFDTAQKTSVDTLKNLGLSVKE
For B1, the “glycan array binding signal (z-score)” value [1] was -0.165, the “glycan array binding signal (z-score)” value [2] was -0.181 and the “glycan array binding signal (z-score)” value [3] was -0.16. The “glycan array binding signal (z-score)” value [4] was -0.141, the “glycan array binding signal (z-score)” value [5] was -0.163 and the “glycan array binding signal (z-score)” value [6] was -0.136. The “glycan array binding signal (z-score)” value [7] was -0.184, the “glycan array binding signal (z-score)” value [8] was -0.173 and the “glycan array binding signal (z-score)” value [9] was -0.141. For the same binder, the “glycan array binding signal (z-score)” value [10] was -0.17, the “glycan array binding signal (z-score)” value [11] was -0.14 and the “glycan array binding signal (z-score)” value [12] was -0.179. The “glycan array binding signal (z-score)” value [13] was -0.175, the “glycan array binding signal (z-score)” value [14] was -0.158 and the “glycan array binding signal (z-score)” value [15] was -0.145. The “glycan array binding signal (z-score)” value [16] was -0.109, the “glycan array binding signal (z-score)” value [17] was -0.192 and the “glycan array binding signal (z-score)” value [18] was -0.125. The “glycan array binding signal (z-score)” value [19] was -0.105, the “glycan array binding signal (z-score)” value [20] was -0.147 and the “glycan array binding signal (z-score)” value [21] was -0.155. The “glycan array binding signal (z-score)” value [22] was -0.144, the “glycan array binding signal (z-score)” value [23] was -0.135 and the “glycan array binding signal (z-score)” value [24] was -0.178. The “glycan array binding signal (z-score)” value [25] was -0.169, the “glycan array binding signal (z-score)” value [26] was -0.187 and the “glycan array binding signal (z-score)” value (Neu5Ac(a2-6)GalNAc) was -0.174. The “glycan array binding signal (z-score)” value [27] was -0.167, the “glycan array binding signal (z-score)” value [28] was -0.122 and the “glycan array binding signal (z-score)” value [29] was -0.175. For the same binder, the “glycan array binding signal (z-score)” value [30] was -0.17.

Source: the supplement of paper PMC8728848
